{
  "source": "PubChem BioAssay (NCI)",
  "tested_on": "NCI-H322M lung",
  "assay": "DTP human tumour cell line panel, 48 h",
  "note": "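Step 1: Grow cells in 96-well plates. Step 2: Expose to compound for 48 hours at 5 concentrations. Step 3: Interpolate endpoints linearly; if unreached, use highest concentration. Abbreviation: GI50, concentration required for 50% inhibition of growth. TGI: concentration producing complete growth inhibition.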",
  "data": [
    {"molecule": "CN(C)c1nc(NCCNS(=O)(=O)c2ccc(C(=O)/C=C/c3ccc(F)cc3)cc2)nc(N2CCOCC2)n1", "values": [
      {"measurement": "GI50", "value": 13.2, "unit": "µM"},
      {"measurement": "TGI", "value": 25.9, "unit": "µM"}
    ]},
    {"molecule": "O=C1NC(=O)c2c1c1c3cc(Br)ccc3[nH]c1c1oc3ccc(F)cc3c21", "values": [
      {"measurement": "GI50", "value": 2.65, "unit": "µM"},
      {"measurement": "TGI", "value": 8.89, "unit": "µM"}
    ]},
    {"molecule": "CC[C@]12C=CCN3CC[C@@]4(c5ccc(OC)cc5N(C)[C@H]4[C@@](O)(C(=O)OC)[C@@H]1OC(=O)CCC[P+](c1ccc(OC)cc1)(c1ccc(OC)cc1)c1ccc(OC)cc1)[C@@H]32", "values": [
      {"measurement": "GI50", "value": 1.31, "unit": "µM"},
      {"measurement": "TGI", "value": 4.89, "unit": "µM"}
    ]}
  ]
}
